# Measured values published in PubChem BioAssay AID488969 (Vanderbilt High Throughput Screening Facility, 2010).
# Over roughly 110,000 compounds, “z-score” has its median near -0.1; the highest 2% begin near 2. The list shows a part of the results. Activity calls are given as the source filed them.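 How the source made its calls: active means z-score in the third read window above 3 or below -3; inactive means the rest.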
# Molecular target: Metabotropic glutamate receptor 8 (Rattus norvegicus) (UniProt P70579)
# Sequence of UniProt P70579 (P70579 whole entry, looked up): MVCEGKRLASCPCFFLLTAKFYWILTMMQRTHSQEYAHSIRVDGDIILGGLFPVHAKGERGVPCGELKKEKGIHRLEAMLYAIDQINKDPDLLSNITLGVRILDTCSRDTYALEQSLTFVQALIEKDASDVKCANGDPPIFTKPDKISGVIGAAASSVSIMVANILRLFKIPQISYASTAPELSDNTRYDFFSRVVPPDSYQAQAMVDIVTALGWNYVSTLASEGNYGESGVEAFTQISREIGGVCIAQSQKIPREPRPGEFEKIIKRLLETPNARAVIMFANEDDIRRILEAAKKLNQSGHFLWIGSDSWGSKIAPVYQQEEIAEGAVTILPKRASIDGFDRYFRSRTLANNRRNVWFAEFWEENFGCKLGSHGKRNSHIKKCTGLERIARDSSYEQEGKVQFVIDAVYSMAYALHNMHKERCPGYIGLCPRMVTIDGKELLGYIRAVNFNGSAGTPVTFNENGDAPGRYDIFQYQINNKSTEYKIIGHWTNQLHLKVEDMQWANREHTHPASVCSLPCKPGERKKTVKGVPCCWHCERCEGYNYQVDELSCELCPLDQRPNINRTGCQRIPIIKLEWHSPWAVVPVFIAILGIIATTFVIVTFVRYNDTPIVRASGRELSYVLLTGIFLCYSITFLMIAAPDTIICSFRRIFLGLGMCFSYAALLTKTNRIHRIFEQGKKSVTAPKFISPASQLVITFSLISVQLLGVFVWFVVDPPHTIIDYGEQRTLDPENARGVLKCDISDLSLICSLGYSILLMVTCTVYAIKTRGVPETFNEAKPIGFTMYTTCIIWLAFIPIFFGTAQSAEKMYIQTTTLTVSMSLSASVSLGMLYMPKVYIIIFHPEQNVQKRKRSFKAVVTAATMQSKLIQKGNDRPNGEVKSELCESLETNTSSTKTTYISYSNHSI
# Assay: rat mGluR8 modulators via GIRK flux, primary screen, cell-based, thallium flux, HTS (AID 488969)
# Settings: HEK293 rat mGluR8, GIRK (G protein-gated inwardly rectifying potassium channel) thallium flux, FluoZin2; at 10 µM; stronger effect = higher value; submaximal glutamate (EC20) added with thallium
row,SMILES,z-score
1,CCOC(=O)N1CCC(NC(=O)C2CCCN(S(C)(=O)=O)C2)CC1 (centres undefined),0.932
2,CC(C)CNS(=O)(=O)c1ccc(CCC(=O)Nc2cc(Cl)ccc2Oc2ccccc2)cc1,0.192
3,COc1cc(CNn2nnnc2N)ccc1OCc1c(Cl)cccc1Cl,-0.238
4,COc1ccc(C)cc1S(=O)(=O)N1CCCC(C(=O)NCC2CCCO2)C1 (centres undefined),-0.15
5,O=C(CCN1C(=O)/C(=C/c2ccccc2)SC1=S)NNC(=O)c1cccnc1,-0.155
6,COc1cc(/C=N\NC(=O)Cn2nnc3ccccc32)cc(OC)c1OC,-0.0696
7,C=CCn1c(SCC(=O)N2CCc3ccccc3C2)nc2sc(CC)cc2c1=O,-0.501
8,O=C(Cn1c(C(=O)NCC2CCCO2)cc2sccc21)c1ccccc1 (centres undefined),-0.207
9,Nc1nc(-c2ccc([N+](=O)[O-])cc2)cs1,-0.0935
10,Cc1cc(OCC(=O)NC2CCCCC2)ccc1Cl,-0.17
11,COCCSc1ccccc1C(=O)NCCCn1ccnc1,0.00688
12,CCOC(=O)CSc1nnc(NC(=O)c2cc([N+](=O)[O-])cc([N+](=O)[O-])c2)s1,-0.581
13,CCOC(=O)C1=C(C)OC(N)=C(C#N)C1c1cc2c(cc1Br)OCO2 (centres undefined),-0.389
14,CN1CCc2c(sc(/N=C/c3ccco3)c2C(N)=O)C1,-0.22
15,COC(=O)c1ccccc1NC(=O)Nc1ccc2c(c1)OCO2,0.207
16,CCOc1ccc(NC(=O)CCC(=O)N/N=C/c2ccc([N+](=O)[O-])s2)cc1,2.1
17,CCOc1ccc(NC(=O)N(C2CCCCCC2)C2CCN(C(C)=O)CC2)cc1,0.205
18,O=C1OCCC1Sc1nc(-c2ccccc2)cs1 (centres undefined),-1.82
19,CN(C)c1ccc(/C=N/N(Cc2ccccc2)c2ccccc2)cc1,0.172
20,CCOC(=O)C1=C(C)N(C)C(C)=C(C(=O)OCC)C1c1ccccc1,-0.244
21,Cc1[nH]nc2c1C1(C(=O)N(Cc3ccc(Cl)cc3)c3ccccc31)C(C#N)=C(N)O2 (centres undefined),-0.00904
22,CCC(C)N(NC(C)=O)c1nc(Cl)nc(NC(C)C)n1 (centres undefined),-0.107

row,SMILES,z-score
1,CC1CCCC(NC(=S)NC(=O)c2cncc(Br)c2)C1C (centres undefined),active: 6.76
2,Cn1c(NC(=O)c2cc(-c3ccc4c(c3)OCO4)nc3ccccc23)cc(=O)n(C)c1=O,-0.115
3,COc1ccc(-c2csc(/C=C/c3ccc4c(c3)OCO4)n2)cc1OC,-0.227
4,CCOC(=O)C(C(=O)NCCCN1CCOCC1)C1CCCCC1 (centres undefined),-0.265
5,Cc1cc(C)c(S(C)(=O)=O)c(S(=O)(=O)c2ccc(Cl)cc2)n1,-0.0161
6,CC(C)Cc1cc(-c2ccco2)c(C#N)c(N)n1,0.111
7,COc1ccc(N=C2C(=O)N3c4c(cccc42)C(C)=CC3(C)C)cc1,-0.0537
8,CC(C)Cc1nnc(NC(=O)CSc2ncn[nH]2)s1,-1.31
9,Cc1ccccc1C(=O)Oc1ccccc1N1C(=O)C2CC=CCC2C1=O (centres undefined),-0.132
10,O=C(Cc1ccc([N+](=O)[O-])cc1)Nc1nnc(C2CC2)s1,1.17
11,CCOc1ccc2cc(S(=O)(=O)n3ccnc3C)ccc2c1,0.917
12,CCOC(=O)c1c(NC(=O)c2cccs2)sc2c1CCCC2,1.02
13,CCn1c(=O)c(=O)n(CC)c2cc(S(=O)(=O)N3CCc4ccccc43)ccc21,-0.766
14,Cc1ccc(C(=O)N2CC(C)OC(C)C2)c(Cl)c1 (centres undefined),-0.0463
15,COc1cc(NC(=O)COC(=O)c2ccc(S(=O)(=O)N3CC(C)CC(C)C3)cc2)c(C)cc1[N+](=O)[O-] (centres undefined),-0.41
16,CCN(C(=O)CN1CCN(S(=O)(=O)c2cc(Cl)ccc2Cl)CC1)c1c(N)n(Cc2ccccc2)c(=O)[nH]c1=O,-0.194
17,CCOC(=O)C1CCCN(C/C=C/c2ccccc2[N+](=O)[O-])C1 (centres undefined),-0.267
18,COc1ccc(C2=CC(=O)OC3(CCCCC3)O2)cc1,-2.37
19,Cc1cc2cc(CNC(=O)c3ccc(S(=O)(=O)N4CCCCC4)cc3)ccc2[nH]1,0.254
20,CCn1c(SCC(=O)c2ccc3ccccc3c2)nnc1-c1ccco1,-0.531
21,CCOC(=O)N1CCN(CC(O)COCc2ccccc2)CC1 (centres undefined),-0.292
22,Cc1cc(C=O)c2c(c1)C=CC1(Oc3ccccc3C(=O)N1C)O2 (centres undefined),-2.55

row,SMILES,z-score
1,CCCOc1ccc(C2c3c(oc4ccccc4c3=O)C(=O)N2CCN(CC)CC)cc1OC (centres undefined),0.615
2,c1ccc(CCNc2ncnc3c2nnn3Cc2ccccc2)cc1,-0.118
3,COCCNC(=O)c1ccccc1NC(=O)c1ccccc1N(C)S(C)(=O)=O,-0.163
4,CCN(CC)C(=O)c1c[nH]c2ccc(S(=O)(=O)Nc3cc(C)cc(C)c3)cc2c1=O,-0.38
5,CCCCCOC(=O)CSc1nc2c(c(=O)[nH]c(=O)n2C)n1Cc1ccc(Cl)cc1,0.0777
6,Cc1ccc(N(CC(=O)NC2CCC(C)CC2)S(=O)(=O)c2cccnc2)cc1 (centres undefined),-0.173
7,CCCCOc1ccc(NC(=O)c2cc(F)c(F)cc2Cl)cc1,-0.21
8,N#Cc1nc(-c2ccccc2)oc1NCC1CCCO1 (centres undefined),-0.084
9,O=c1c2sccc2nc(SCc2cc(=O)n3cc(Cl)ccc3n2)n1-c1ccc(F)cc1,-1.07
10,O=C(Nc1ccc(O)c(-c2nc3ccccc3o2)c1)C1(c2ccc(Cl)cc2)CCCC1,-0.181
11,CCNc1nc(NCC)nc(N/N=C/c2ccc([N+](=O)[O-])o2)n1,-0.153
12,Fc1ccc(Nc2ncnc3sc4c(c23)CCC4)cc1,0.00391
13,Cc1ccc(C)c(C(=O)CSc2nnnn2C(C)C)c1,-0.175
14,COc1cc(NC(=O)c2cc3nc(C4CC4)cc(C(F)(F)F)n3n2)c(OC)cc1Cl,-0.0956
15,Cc1ccccc1-c1nc(CN2CCC(C(=O)NCCCN3CC(C)CC(C)C3)CC2)c(C)o1 (centres undefined),2.43
16,Cc1ccc2c(C)nc(NC3=NCN(C(C)C)CN3)nc2c1,0.123
17,O=C(Nc1nc(-c2cccs2)c(-c2cccs2)s1)C1CCCC1,-0.821
18,CCCNC(=O)c1ccccc1NC(=O)CSCc1ccc(OC)cc1,-0.46
19,CCOCCCN1C(=O)CN(C2CCCCC2)C(=O)C1c1ccc(OC)c(OC)c1 (centres undefined),-0.329
20,CCN1C(=O)CC(N2CCN(c3ccc(Cl)cc3)CC2)C1=O (centres undefined),0.941
21,CC(C(=O)Nc1cccc([N+](=O)[O-])c1)N1CCN(C/C=C/c2ccccc2)CC1 (centres undefined),0.163
22,Cc1ccc(Cl)cc1N1CCN(Cc2nc3c(c(=O)[nH]c(=O)n3C)n2CCc2ccccc2)CC1,0.0775

row,SMILES,z-score
1,Cc1ccc(C2=N/C(=C/N3CCOCC3)C(=O)O2)cc1,-0.011
2,CC(Sc1nc(-c2ccccc2)cc(C(F)(F)F)n1)C(=O)N1CCC(C(N)=O)CC1 (centres undefined),-0.247
3,Cc1noc(C)c1S(=O)(=O)N1CCCC(C(=O)Nc2cccnc2)C1 (centres undefined),-0.145
4,C=CCn1c(=O)c2ccc(C(=O)NCc3ccccc3)cc2n(Cc2ccc(Cl)cc2)c1=O,0.157
5,COc1ccc(CC2(C)OC(c3ccccc3)=NN2C(C)=O)cc1 (centres undefined),-0.359
6,COc1ccc(OCC(=O)NCc2cccnc2)cc1,0.268
7,Cc1ccc(OCc2nnc(NC(=O)OCC(C)C)s2)c(C)c1,-0.128
8,O=C(O)c1cccc(CSc2nnc(Cc3ccccc3)o2)c1,-0.337
9,O=[N+]([O-])c1cc(-c2nc(-c3ccncc3)no2)cc([N+](=O)[O-])c1,0.0493
10,Cc1csc(NC(=O)Cn2cnnn2)n1,1.29
11,Cc1ccc(C(=O)N/C(=C/c2cccnc2)C(=O)NCc2ccco2)cc1,-0.102
12,Cc1cc(C)n(-c2cc(N3CCOCC3)nc(-c3ccccc3)n2)n1,-0.147
13,CCOc1ccc(N(CC(=O)NCC2CCCO2)C(=O)CCC(=O)Nc2ccccn2)cc1 (centres undefined),-1.08
14,CCOC(=O)Nc1ccc2c(C)cc(=O)oc2c1,-0.0731
15,CCCCCn1c(-c2ccco2)nc2nc3ccccc3nc21,-0.463
16,CCCCNC(=O)c1ccc2c(=O)n(CCCOCC)c(=S)[nH]c2c1,0.234
17,Cc1onc(-c2ccccc2Cl)c1C(=O)NCC(=O)O,-0.267
18,Cc1ccc(C)c(S(=O)(=O)NCCOc2nc(NC(C)C)nc(NC(C)C)n2)c1,0.708
19,COc1ccccc1-n1c(SC)nc(O)cc1=O,-0.633
20,NC(=S)c1cc2ccc(O)cc2oc1=O,-0.0665
21,CCOC(=O)c1cnc2c(C#N)c(C)nn2c1C,0.0622
22,Cc1ccc(OCc2nnnn2-c2ccccc2)cc1,-0.799

row,SMILES,z-score
1,O=C(Nc1cccc(Cl)c1N1CCCC1)c1cccc(-c2cc3ccccc3oc2=O)c1,-0.0492
2,Cc1ccc2c(c1)[C@@H](O)C[C@@H](C)N2N=O,-0.286
3,COc1ccc(C)cc1S(=O)(=O)N(CC(=O)O)c1ccc(F)cc1,0.306
4,CCOC(=O)C1=C(CN2CCOCC2)NC(=O)NC1c1cc(C)ccc1C (centres undefined),1.13
5,O=C(CNC(=S)NC(=O)c1ccco1)c1ccccc1,active: 6.42
6,O=C(NCc1ccco1)c1cc2nc(-c3cccs3)cc(C(F)(F)F)n2n1,-0.0686
7,COc1ccc(OC)c(NC(=O)Nc2ccccc2C)c1,-0.89
8,CN(C(=O)c1ccncc1)C1CCS(=O)(=O)C1 (centres undefined),0.517
9,O=C(CN1CCN(C(=O)c2cccc(F)c2)CC1)Nc1ccccc1F,1.22
10,Cc1ccc(NC(=O)/C(Cl)=C/c2ccccc2)cc1C,0.0751
11,COC(=O)c1ccc(C2c3c(n[nH]c3C)C(=O)N2c2ccc(C)cc2)cc1 (centres undefined),-2.04
12,CCOc1ccc2ccccc2c1/C=N/NC(=O)CC1(C)OCCCO1,-0.172
13,O=[N+]([O-])c1ccc(/C=N/Nc2nc(N3CCCC3)nc(N3CCCC3)n2)o1,-0.62
14,C=C(C)COc1ccc(-c2ncncc2Oc2ccc(OC)cc2)c(O)c1,-0.27
15,O=C(c1cnccn1)N(Cc1ccco1)C1(C(=O)NC2CCCCC2)CCCCC1,-1.51
16,Cc1noc(C)c1C(=O)NC(C)c1ccc2c(c1)OCO2 (centres undefined),0.275
17,Cc1ccc(/C(N)=N/OC(=O)COc2ccccc2Cl)cc1,-0.637
18,COc1ccccc1NC(=O)c1ccc(COc2ccc3c(c2)CCC3)cc1,-0.228
19,Cc1ccc(-c2csc3nc(C)n(-n4c(C)ccc4C)c(=O)c23)o1,0.614
20,O=C(N/C(=C/c1ccc(Br)cc1)c1nc2ccccc2[nH]1)c1ccco1,0.0984
21,CCc1nc(SCc2cccnc2)c(C#N)cc1C,0.507
